Our source for the binding signal values is publication PMC12136788.

The list shows a part of the results.

The chains are these.
T1: UNK ZnF1-3 (human, UniProt Q9C0B0 31-174)
T1 sequence: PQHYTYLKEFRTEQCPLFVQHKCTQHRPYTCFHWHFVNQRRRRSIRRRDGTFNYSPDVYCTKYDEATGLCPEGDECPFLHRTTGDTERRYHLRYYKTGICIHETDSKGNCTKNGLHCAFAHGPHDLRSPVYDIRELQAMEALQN

B1: 126174126_126174508_2552_3pUTR_ENSMUSG00000042500_ENSMUST00000084289|mouse|control|control (ssRNA)
RNA: GGGAGUUCUACAGUCCGACGAUCGAGUUCAUCUGCAGUGAAGCAGUUGUCAUCCCACAAGACCUGGUAAUGUGAAGGACGGCUGGUUCCCUGAAUUCCUGCAUGACUACAGAGGUAAAAGUCAAACUCAGACGGGUGUGUGACCAACAGAGGAUUGAGCAUCA
B2: 85483556_85483676_4876_3pUTR_ENSMUSG00000042523_ENSMUST00000123491|mouse|control|control (ssRNA)
RNA: GGGAGUUCUACAGUCCGACGAUCUUAAAAUUGUCAGAUCAUAAUUGGUUGUCUGGGUCCUCUAAUCUGCCCAAUAUGGGAAAUCAAUGAGAAUCUGAUUAGGACUUCUCCUGUGUUCUAUCAGGCUAAAAGUCUAUAGUUUUUCAACAGAGGAUUGAGCAUCA
B3: chr2:32654292:32654293:+_ENSG00000115760_ENST00000421745|hu_hu|motif|central (ssRNA)
RNA: GGGAGUUCUACAGUCCGACGAUCUAAAGGUUUGGAACCUUCUGAAGAUGGUUCUAUUCCUUUAGAAAGAGAUCCAUCCACGGGUAUAUCAGCUUCAUCAAUAUCAUCACAGGUUCCUCCAAUUUGGAGAAAAUGAAGCUCACCCAACAGAGGAUUGAGCAUCA
B4: 79727214_79728839_1188_CDS_ENSG00000146247_ENST00000275034|human|control|control (ssRNA)
RNA: GGGAGUUCUACAGUCCGACGAUCUUCUGAUAUUUUCUCUGGCUGACCUGAUCCAAAAAAAUAAACCCGAAUAAUAUGAUCUGUGCUUCCCGUCGCCAGAAACAUUCCACCAGCACUAAAAGAAGAACAGAUCAUUUGAACUCCCAACAGAGGAUUGAGCAUCA
B5: chr7:19721593:19721594:+_ENSMUSG00000050428_ENSMUST00000053109|mus_mus|motif|central (ssRNA)
RNA: GGGAGUUCUACAGUCCGACGAUCAUUGGGUAAGUUGCCAUCUGGUGAAUGGGGCUCUCGGACAUUGGAGAUUCGGAAAGCGGUACGCACCUCGCCGGGCCCAGGGCCUGGCCGUUCCUCCUUGCGGAGACCCUUGGUAGGAGGCAACAGAGGAUUGAGCAUCA
B6: chr8:11614781:11614782:-_ENSMUSG00000031508_ENSMUST00000169782|mus_mus|FALSE|FALSE (ssRNA)
RNA: GGGAGUUCUACAGUCCGACGAUCAGCGAAGAGCUUCUUUCUCCUGCCUGACCAGGAAGGGAACAAUGCUGUCUCCAUAAAGGAGAGGCUCUGGCUUUUACCACUUUUCCUCUGUUAGGCAAAACAGCCUCUGCUGAUUUCAGACAACAGAGGAUUGAGCAUCA
B7: chr17:57746147:57746148:+_ENSG00000141367_ENST00000269122|hu_mus|FALSE|FALSE (ssRNA)
RNA: GGGAGUUCUACAGUCCGACGAUCUUGCCCAGUCUUGCAAGCCGCCUGAAUAUAUUUAAAGUGCACAUCUGGGUCCUGACUAAAGUUAACAAUGGACCCCAGAAAAUAAAAGAGACCUUCAAAACUCUUGAAUGAUUCAAAGAGCAACAGAGGAUUGAGCAUCA
B8: chr14:66974463:66974464:+_ENSMUSG00000022044_ENSMUST00000074523|mus_hu|mus_mus_mus_hu_False|28_38 (ssRNA)
RNA: GGGAGUUCUACAGUCCGACGAUCUUGUAGGACGACUUAUUCAGGGGAUCGGCCAGGAAGCAGGAGCAGAACAAGGACACCAGCGGGAGCUCCUUCAUCUUCUCCUUAUAGGCUGCAAGGGUCAUGUUUCUGGGAUCUGGUGGCCAACAGAGGAUUGAGCAUCA
B9: chr12:57064132:57064133:-_ENSG00000110958_ENST00000262033|hu_hu|FALSE|FALSE (ssRNA)
RNA: GGGAGUUCUACAGUCCGACGAUCAGACAUGUCUUCAUCUGAAUCAUCUUCCCAGUCUUUCCAAUUAUUGAAGUCGACACUAAGCCAAUUAAGCUUUGCCCUUUCUUUUGUUAACCUUGGCCAUGACUGGCCAGAUUCUCCUUUCAACAGAGGAUUGAGCAUCA
B10: 25286590_25286710_898_CDS_ENSMUSG00000054793_ENSMUST00000068023|mouse|control|control (ssRNA)
RNA: GGGAGUUCUACAGUCCGACGAUCCGCCGCCUCGCAGGUGUAGGUGCCGUUAUCUGCAGAUACCAGGCCAGGUAGCGUGAGCGUCUCGCCCACCGCCUCCGCCCUCUCUGGCAGAGACUCAUUCCCACGGUUCCAGCGGAUCUGCAACAGAGGAUUGAGCAUCA
B11: chr1:58468927:58468928:-_ENSMUSG00000026034_ENSMUST00000148330|mus_mus|mus_mus_mus_hu_False|48_98 (ssRNA)
RNA: GGGAGUUCUACAGUCCGACGAUCAAUUACUGAAAAAUGAAAGAUGUACCUUAGCUAUGUACUUAAUGAACCAAAUUACCCAAACAACAUAAAAUGUGCAAUAUAAAAAUGUUAAGAAUUUACAAAGCUGUACAAAAUAACUUACAACAGAGGAUUGAGCAUCA
B12: 86424909_86448781_792_3pUTR_ENSMUSG00000018171_ENSMUST00000018315|mouse|control|control (ssRNA)
RNA: GGGAGUUCUACAGUCCGACGAUCCCGUGAUGCAAAGUCUUGUGCAGCCUCUGCAUGUUCCAGCAUUUCUUCAAAUUCCUGAUACUCUUCAUCAUCUGGUUCAGCACCUGAGAGGCGAGCUGCCCUGGCCAUGAAAUAUGGAGGCAACAGAGGAUUGAGCAUCA
B13: 7796676_7796796_820_CDS_ENSG00000170004_ENST00000380358|human|control|control (ssRNA)
RNA: GGGAGUUCUACAGUCCGACGAUCUAUGGGGGUGGCCGACGAGACAGCAGCUGACACCUGCUCAGCUACAGCUGCUGCUGCUGCUGCCGCUGCCGCCGCCACAGCAGCUGCUGACCCCUUGAAGGGGUUGUUGGCACUGAACUCCAACAGAGGAUUGAGCAUCA
B14: chr17:62495991:62495992:-_ENSG00000108654_ENST00000581693|hu_mus|motif|central (ssRNA)
RNA: GGGAGUUCUACAGUCCGACGAUCCACCAUAAUUACUGCUGCACUGCAGUCAUUUCUGCAUUUCCCAUGUUUCUUAAAUAACGGUCUUGUCUGAUAACACACAAUAUAAAGAGCAAUUAUGAAAAACAGACAUUUACAUAUACUCAACAGAGGAUUGAGCAUCA

The target of this test is T1, UNK ZnF1-3. Description: nsRBNS (natural sequence RNA bind-n-seq); RBNS binding buffer (assumed for nsRBNS): 25 mM Tris pH 7.5, 150 mM KCl, 3 mM MgCl2, 0.01% Triton X-100, 500 ug/ml BSA, 20 U/ml SUPERase-In, 4 C; UNK is unkempt and MSI1 is Musashi-1; names of the RNAs are library labels; protein concentration not given here; high values mean tight binding.
For B1, the binding signal was 1.13 enrichment R.

B2 came in with a binding signal of 0.751 enrichment R. B3: the binding signal was found to be 0.922 enrichment R.

B4 displayed a binding signal of 1.21 enrichment R.

In turn, B5 displayed a binding signal of 0.979 enrichment R. Next, B6: 0.763 enrichment R. The molecule B7 returned a binding signal of 2.29 enrichment R. Next, B8: 1.81 enrichment R.

As to B9, the binding signal is 0.524 enrichment R.

In turn, B10 gave a binding signal of 0.515 enrichment R.

Take B11: the binding signal was 2.12 enrichment R. In turn, B12 yielded a binding signal of 0.766 enrichment R. Molecule B13 yielded a binding signal of 0.423 enrichment R. B14 came in with a binding signal of 0.931 enrichment R.
